The results in this text go back to the supplement of paper PMC10681739.

± gives the standard deviation of the averaged measurements. Whole data set: some 4,100 sequences, median “arbitrary fluorescence units” near 780, cut for the highest 2% near 22,000. Some of the results follow.

This assay concerns the target T1, ETS1 (UniProt P14921).
T1 sequence: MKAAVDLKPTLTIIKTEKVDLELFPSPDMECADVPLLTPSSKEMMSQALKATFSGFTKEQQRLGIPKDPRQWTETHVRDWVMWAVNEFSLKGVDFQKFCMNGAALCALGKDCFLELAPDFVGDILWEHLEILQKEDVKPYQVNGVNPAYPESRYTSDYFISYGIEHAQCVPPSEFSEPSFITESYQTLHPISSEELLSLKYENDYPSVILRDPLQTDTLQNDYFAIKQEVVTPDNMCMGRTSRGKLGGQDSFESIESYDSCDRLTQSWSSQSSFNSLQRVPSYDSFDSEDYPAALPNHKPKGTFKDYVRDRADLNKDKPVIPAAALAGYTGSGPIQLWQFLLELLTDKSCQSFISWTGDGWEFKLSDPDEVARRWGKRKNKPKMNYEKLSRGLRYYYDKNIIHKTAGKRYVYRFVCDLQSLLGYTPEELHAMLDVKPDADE
Description: ETS1 binding intensity (PBM fluorescence), ETS1 alone (arbitrary fluorescence units); higher = stronger binding. As to conditions: ETS1 concentration 1 nM; RUNX1 concentration 0 nM. A digest of the protocol:
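Recombinant full-length human ETS1 was applied at 1 nM, without RUNX1, to double-stranded Agilent 4 × 180k arrays of 36-bp genomic probes carrying a mutated RUNX1 partner site, following standard PBM protocols. Detection used an anti-ETS1 antibody (Cell Signaling Technology 14069) and an Alexa488-conjugated secondary antibody, with scanning on a GenePix 4400A. Each sequence was printed as four replicate spots. Binding level is the spot fluorescence intensity, summarised across replicates and not normalised.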
With GGGTGCTTACTCGGCATGCTGTTGGGCTTCCGGTGT, the ETS1 binding intensity amounted to 1260.

In turn, TTCTGCACCAGAACTGTGCTCTGAGTTCAGGAAACT came in with an ETS1 binding intensity of 354.

Sequence GCTGCTTCCGGCCGCTGGTCGCAGGGCTGAGGGACT showed an ETS1 binding intensity of 26400.

The sequence GTGGTGCTTTTCAGGTTGATACCGCTTCCTGAAGAT gave an ETS1 binding intensity of 627.

Sequence TCTCTTCAATCTGGTCCCCATCCGGCCACACCATCT came in with an ETS1 binding intensity of 953.

Sequence TCCCCTGTAGGTTCCCCTCCCCAGGATGTTGCCACC had an ETS1 binding intensity of 466.

The sequence CTCTCCACCTCCTTCCGACCAGGACCTCACCCCCCC returned an ETS1 binding intensity of 574.

GCACAAAATCGCACAAACAGCCGGAAGCACAGCCCC gave an ETS1 binding intensity of 1430.

In the case of CCTGTTCCGGGCTCCGTACACCCAGGCCTGCAGCTG, the ETS1 binding intensity was 1650.

CACTACCCCAAATTATGCAGTGGAATTTCCTACATT had an ETS1 binding intensity of 520 ± 25.

With AAGCTTCCTGGCCCTTTAAAAATGGAGGTTCCGCAC, the ETS1 binding intensity was found to be 4840.

CCAGGCGGAAGCGGCCGGGAGTAGCGCTGCTGTTGG showed an ETS1 binding intensity of 2190.

Sequence GTCGGGAAGTAGGCGGGGTGACGTGTCGTTGACGAG gave an ETS1 binding intensity of 685.

CCCCCGTGTCGTCCGCCCATGCTAACTTCCTGCCGG: the ETS1 binding intensity came out at 2120.

As to CTCTCTTGCGATTTGCAGCCAGATCACTTCCCATAC, the ETS1 binding intensity came to 521.

Sequence AGCAAGGCCTACGGGGAGGCGCAGGATGGACGCGTT displayed an ETS1 binding intensity of 352.

Sequence ATGGGAGGAAGAGACAGAGGCCTGGCCACTAAGTGG gave an ETS1 binding intensity of 497.

Consider CCGCCACCGAAGCCTCAGCAGCAGTTGCCGGAAGAA, for which the ETS1 binding intensity is 376.

TTGCTAGAGGAAGCGCTGCCCCGGCAGCCCCAGCCA: the ETS1 binding intensity is 750.

CAAGGGAACATCCTTAAACAGCTTGTCGTATTGCTG: the ETS1 binding intensity is 1580.

GCCTCCGGATCTATGGCAGCCTGTGGCTCACGACAC showed an ETS1 binding intensity of 331.

With GAAGTCACATCCTGTCTGTTGGGGCAGGGCACAGAG, the ETS1 binding intensity was found to be 23500.

The sequence GGTTACTAGACAACAGCTTTTGTCCAGGATGTGGCT gave an ETS1 binding intensity of 464.

Sequence AATATAGAGGTTCAAAACAAGAGGAAGTGTGGCAAG registered an ETS1 binding intensity of 590.

AGAAGGGCCACGACCGTCACGTGTTCCTCTTCCGCA: the ETS1 binding intensity stood at 357.

Sequence CGGCCGCCGTTTAGGGCGGCCCCGGAAGCGGGGCGC yielded an ETS1 binding intensity of 531.

As for ACTGTTGTCAGGGCTGCCCTGAGTCATCCTGCGGAG, the ETS1 binding intensity is 324.

With TAGGTCTGAGGGTGACGTCTGTTTCCTGTGATTGAA, the ETS1 binding intensity came to 1290.

TTTCTCAGGGTGATCGCGTTCCTTCCGCCCAGAGAG: the ETS1 binding intensity was 619.

As to GCTGGGGCAGGAAGCTTCTAGGCCAGAGACAGGACG, the ETS1 binding intensity was 1630.

For GTCCCTCCACGAACGCCCCCAGCTTCCTGCTCCCCA, the ETS1 binding intensity was found to be 1070.

Consider TGCAGCCCCCTCAGCCATCATCTTCCTGAGTCAACA, for which the ETS1 binding intensity was 395.

Take TATTCTTCCTGTACTTAAGCTTGCTGGTGTGATTTC: the ETS1 binding intensity was 4620.

Take ACAACCCCAACGCGCGGCGCCGCCACCGGAAAAGGA: the ETS1 binding intensity worked out at 614.

Turning to CCCCTGCCCCTTCCTGGAAGGCTGGGGTGTAACACC, the ETS1 binding intensity turned out to be 1670.

ACCGTTAACTCAAGCACTAACATTTCCTGTTCTGGT displayed an ETS1 binding intensity of 3540.

With CCGAGCGCACCAGCTCCCGCGCGTGGTTCCGCCGCT, the ETS1 binding intensity is 324.

TGCACTCCACTTCCCCTCGCCCGAAGTGAGCAGTCA: the ETS1 binding intensity turned out to be 2340.

TCTGCTGTCAGCTGACTGTGCCAGAGTTCCGCGGGG: the ETS1 binding intensity stood at 373.

Consider TCTGGGAAATGGAGTTCACAGCGCTCCGGGGCCGGA, for which the ETS1 binding intensity is 333.

On to GAAGCAGACAGGAAGTGGGTCTGAGCGGAGGAGGGA, for which the ETS1 binding intensity is 13300.

With CTATATCACATCCTTTCTCTGGCCGCGCTGACTTCG, the ETS1 binding intensity was 2540.

Regarding CCGCGCACCCGGAACTACCTCCCGACCCTCATCCCC, the ETS1 binding intensity worked out at 775.

The sequence CAACGACACCAAAGCACCACCACTTCCTTGAATCTG came in with an ETS1 binding intensity of 808.

For GCTATCGAGCTTCCTGCAGCGGTGTCCACCCGAGCA, the ETS1 binding intensity is 3850.

Take GACGCTCTCTTCCTGTCTTTGGGGCTCCAGAAAGGC: the ETS1 binding intensity worked out at 5570.

As to GGCCGTTCTTCCGCCTGCAGGGTGCTCAGCGGAGGT, the ETS1 binding intensity turned out to be 2970.

As for GCCTTTTGGGGTTTGTACCACTTCCTGCCTTTTCTG, the ETS1 binding intensity was 4950.

As to CAACCGAAGTAACACGCAATGCGGAAGGGCGAGGGG, the ETS1 binding intensity stood at 494.

For the sequence TGGGCGCTGACGCGCAACCAGGAAGCGGCGGACACT, the ETS1 binding intensity amounted to 594.

TGTTCGGTCGTTGTCTCGGGGGGTTGCAGGAAGATC: the ETS1 binding intensity came out at 717.

Sequence AGCACTCTGAGCGCATGCAAAGGAAGTTCCTTTCGC registered an ETS1 binding intensity of 468.

GTAACAACACCCCAGCGGACAGGAAGAGGTCACCAA displayed an ETS1 binding intensity of 829.

On to TGTGTCAAGGCGCAGGCAGCGATTCCGGACTCTGGG, for which the ETS1 binding intensity came to 343.

The sequence GGAGGTGGGGAGGAAGTTCTGAAACTACACACATTT yielded an ETS1 binding intensity of 1560.

Sequence GCTCCCTCTTGCCGCCCTTTTCCGGGGCAAGGGAAG returned an ETS1 binding intensity of 928.

In turn, CTTCAGCCGCCACTTCCCCGCCCCCGGAGCCCGACA registered an ETS1 binding intensity of 760.

In the case of AGAACAGGATGTTCTGAGTACAGCATGAACCTTAAA, the ETS1 binding intensity came out at 3060.

Sequence GTGTGAAGGAAGTGTGAGATCAAATCACAGCTGGGT yielded an ETS1 binding intensity of 717.

GTGAGACAAGACAACAGGCCACATTTCCTCTAAGTA gave an ETS1 binding intensity of 918.

Turning to GCTCGCGTCATCCTGCAGCGCCGACACCAGAGACAC, the ETS1 binding intensity is 861.

Sequence CTTTTTGATTTCCTCAAGCATCCCAGAAATACACAG showed an ETS1 binding intensity of 2020.

With CCGTGCTTTGTTTTACATACCCCAGCATCCTGTATG, the ETS1 binding intensity was 730.

The sequence ACTCTGAGGGCCAAGAAAGGTGACCGGGCTTCCTTC yielded an ETS1 binding intensity of 328.

The sequence TTGCTGTCATCCTGTTCTCCCAGCTAAGCTACAGGA registered an ETS1 binding intensity of 2700.

GAAGCCAGGAAATGGTGCGTGCGCGGGGCCGGGCGC registered an ETS1 binding intensity of 2210.

Regarding GACTGGGAAGGAAGGGGAGGCGGCAAGCACCCTTCA, the ETS1 binding intensity came out at 478.

On to GCTGTCCGTTTCCGAGATGTTAATGCGCGATCTTGC, for which the ETS1 binding intensity came out at 1460.

Turning to CCAACGAGCACTTCCGCTTCCCGAAGCTCCAGCGGC, the ETS1 binding intensity worked out at 27700.

CATGGGGAGGAGGAAGTGGTGGCGGGCGCTGGCCAG yielded an ETS1 binding intensity of 1420.

For TGCGTAGGCGCAGCCAACGCGCCTTCCGGGTAGCCA, the ETS1 binding intensity turned out to be 515.

The sequence TGAAGGGACGGAAGGGACAGAACTTTCGGGAGGCAC had an ETS1 binding intensity of 395.

For AATCCACCGCCATCCGCGGCCCGTAGGAACGCCAGG, the ETS1 binding intensity stood at 367.

In turn, TACGCTGTAGGCGGAGGCGGGCAGGAAATTCACTTA registered an ETS1 binding intensity of 677.

Take TGGTGGCTATTTCCTCTCCCGCTGTAGTCCCTGGAG: the ETS1 binding intensity came to 3630.

CGAAGAGGAAACAAAGAAAGGTGCTGTTCTGGCGCC showed an ETS1 binding intensity of 506.

For TACCATAAAACTTCCCTGGGGAAATCGCCCACTCCC, the ETS1 binding intensity stood at 438.

On to AGTCGTTCCGCCACCTCCCAGTCGGGTTTCGGCGGA, for which the ETS1 binding intensity came to 349.

Consider CAAAGTGATGGGGGAAATGGTTGTAGTTTTGGGTGG, for which the ETS1 binding intensity turned out to be 514.

Turning to CCTCTGCAGTCTCTGCAGCCGTTTGCATTTCCTGAA, the ETS1 binding intensity came to 539.
